# Results taken from PMC4242493.
# The list shows a part of the results. The list includes weakly bound sequences.
# Biological target: MaxL homodimer (UniProt P61244)
# Test: universal protein-binding microarray (PBM)
# Conditions: PBS-based mixture, 10 nM His-tagged protein dimer, 2% milk, 200 ng/uL BSA, 50 ng/uL salmon testes DNA, 0.02% TX-100; detection with Alexa 488 anti-His …; high values mean tight binding; most listed sequences are background and not binding sites; double strand, one strand shown
# Chain of UniProt P61244 (P61244 whole entry): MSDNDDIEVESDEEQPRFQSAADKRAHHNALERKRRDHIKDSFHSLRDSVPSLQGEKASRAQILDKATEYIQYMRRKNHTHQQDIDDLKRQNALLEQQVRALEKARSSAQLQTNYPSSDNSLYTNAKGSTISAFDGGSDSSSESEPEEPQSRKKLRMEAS
row,Sequence,binding signal (normalized occupancy)
1,AGCCCGCA,0.0756
2,ATATATTA,0.0867
3,CCGCCTGC,0.0773
4,CGCGATAA,0.075
5,CTTAGCCA,0.0761
6,ATCTAACA,0.0854
7,CCGCTGAC,0.0713
8,ATGCACCG,0.0783
9,ATTTTTCA,0.0766
10,ATTCAGCC,0.0751
11,AGGACGGG,0.0771
12,TACCTCGA,0.0739
13,AGGCCGTG,0.0702
14,GATGTGAC,0.0817
15,GTAACAAA,0.0748
16,CAGGACGC,0.0713
17,GTCCCAAC,0.0676
18,ACTTTATC,0.0731
19,AGTCGAAA,0.0728
20,AATTTGGC,0.069
21,GAGCATTA,0.0805
22,CGCCGGCC,0.0647
23,AGATGGTG,0.0816
24,CAGCGTAA,0.0706
25,AGCAGTAG,0.0685

row,Sequence,binding signal (normalized occupancy)
1,AACCGGCA,0.0747
2,ATGGAAGC,0.0783
3,CAATGTCC,0.0766
4,ATAGACTA,0.0732
5,AAATTGCC,0.0721
6,AATAGTCC,0.0738
7,ATGCGGCC,0.0851
8,ACGGTGGG,0.0782
9,GCAGTTGA,0.0722
10,AATGTGTA,0.0864
11,GGAGTTAA,0.073
12,CCTAATGA,0.0764
13,CTACAGGA,0.0758
14,CTGTATCA,0.0799
15,GGTAATGA,0.0796
16,ATAGCCCA,0.0748
17,CAAAAATA,0.0833
18,ACTAAGGG,0.0765
19,GCAAATGC,0.0773
20,GAAACCTC,0.0722
21,GGAAGAGA,0.0767
22,CGAATTAA,0.0717
23,AATTTTCC,0.068
24,ACGACCAA,0.0716
25,CCCCGTTC,0.0759

row,Sequence,binding signal (normalized occupancy)
1,CTCCCAGC,0.0698
2,CAGATGCA,0.0876
3,CCCTTCAG,0.0749
4,ACGTGGCT,0.101
5,AGATGGGA,0.0801
6,CTCGCACC,0.0733
7,CTGCGTTC,0.0684
8,CATAATAC,0.087
9,CCTGCCAC,0.0775
10,CGTCAACG,0.0744
11,AGCACGCC,0.0846
12,TCGGCTAA,0.073
13,CTCCCCGC,0.0755
14,ACTACCCA,0.0805
15,AGGAGGGG,0.076
16,ATCGGCAT,0.0843
17,CCGCTAAG,0.0719
18,CTTACGCA,0.0765
19,AAGCCGGT,0.0689
20,AGCAGACA,0.0774
21,GAGTTGCC,0.0729
22,CACCTTCG,0.0726
23,CAAGAATA,0.0754
24,CCCTCAGA,0.0767
25,ACCCCACA,0.0881

row,Sequence,binding signal (normalized occupancy)
1,CCTCCGGC,0.0686
2,TAAATACA,0.083
3,GCGGTGAC,0.0745
4,ACTGCAAT,0.072
5,CCAGTCCG,0.0707
6,CAACGCGG,0.0764
7,AGGAAAGA,0.0734
8,GAGCGGGA,0.0704
9,CGTATCGA,0.0813
10,ACGTGCTC,0.108
11,AAGGGAGG,0.0743
12,GGGGGGGA,0.0854
13,ATATTCCG,0.072
14,AGCGTAAC,0.0706
15,CCCGTAGA,0.0719
16,CCCAACAG,0.0721
17,ACAACACA,0.0849
18,CCCTTTGC,0.0731
19,CGGCTTTC,0.0688
20,GCCGCGAC,0.0664
21,CCCAATAA,0.0796
22,TCGCCACA,0.0841
23,AATGGTGC,0.0795
24,ACGCGAAG,0.0765
25,ATCAACTC,0.0754

row,Sequence,binding signal (normalized occupancy)
1,CTTCAAAC,0.0723
2,ATAATACC,0.08
3,CGCCTATA,0.0793
4,AATGGATC,0.0762
5,ATGCCTGC,0.0786
6,CAAAGCTG,0.068
7,ATTAGGAA,0.0763
8,CGGCGGAA,0.0664
9,AGCAAAAA,0.075
10,ACCGCCAG,0.0659
11,ACGCGAGC,0.0807
12,GAAAAAGC,0.0688
13,GTGAGAAC,0.0711
14,ATGAATAG,0.0817
15,AGTATTTG,0.0723
16,GTCGAGAA,0.0729
17,GACTTGAC,0.0742
18,ATTCTCTG,0.0764
19,CGCCTTCC,0.0727
20,GCCGAAGA,0.0694
21,AACGACAA,0.0714
22,ATCCCGCA,0.0795
23,GCTGAAAA,0.0769
24,CTTTGGCA,0.0726
25,GCGATCCA,0.076

row,Sequence,binding signal (normalized occupancy)
1,CCGTGTTA,0.0848
2,CTTTCCAC,0.083
3,CCAAACTA,0.0821
4,CTCGTCAC,0.0721
5,AATACGTA,0.0823
6,ATAAGAAA,0.0821
7,CATCTCGC,0.0758
8,CTTAATGA,0.0714
9,TAATTGTA,0.0773
10,ACACCCGA,0.0749
11,CTAATGGC,0.0693
12,CCAGCGAG,0.0726
13,TGTATACA,0.083
14,ATACTGCC,0.0738
15,AATGATTG,0.0785
16,AACTTCGC,0.0693
17,ATCACGCA,0.0877
18,AACGCCTA,0.08
19,GAGAACAC,0.0734
20,CCTCGCGA,0.0793
21,GCTGATCC,0.0734
22,ATGGACTG,0.0766
23,AGAGACAT,0.0797
24,CCGACAAC,0.0761
25,CAACCCTG,0.0771

row,Sequence,binding signal (normalized occupancy)
1,CATTGACG,0.0792
2,TCGAGAGA,0.074
3,GGACTCAA,0.0719
4,CTGGTACC,0.0716
5,ATCCCTCC,0.0778
6,AATTCGAC,0.0706
7,CAGGTGAA,0.0782
8,GAGAACCC,0.0767
9,GCTTATCA,0.0771
10,CGGTAGCA,0.0827
11,AGACCTCG,0.0755
12,CAACCGGG,0.0697
13,ACTTACAT,0.0796
14,CGTGAATA,0.0879
15,AAGGTCTC,0.0712
16,ACCTGTCA,0.0782
17,AGGTCTAA,0.0744
18,TCGCTCAA,0.0752
19,AGTGGTGG,0.0755
20,TCCTAACA,0.0761
21,AAACGCTA,0.0723
22,ACCAGAGG,0.0687
23,GCCCAATA,0.0754
24,GTATTTTA,0.0782
25,AATACCCG,0.0718

row,Sequence,binding signal (normalized occupancy)
1,CTGAAATA,0.073
2,AGGCAGAC,0.0703
3,CTCGGCGC,0.0731
4,AACTTCTG,0.0688
5,ATCACGGC,0.0739
6,CATCGCCC,0.0767
7,CGACGCAG,0.0678
8,AGCAAATG,0.0779
9,CGTGGTGC,0.0922
10,ATTAAGTA,0.0747
11,ATTCCGTG,0.0788
12,ATATTGAC,0.0831
13,GACCCGCC,0.0786
14,CGCACGCC,0.0878
15,GAGCGTCA,0.0697
16,TATTAGGA,0.0748
17,AACCCGCT,0.0757
18,ATCCGATA,0.0795
19,CAAGATGA,0.0749
20,AATTGAGA,0.073
21,AATTCAAT,0.0758
22,CCTACGGC,0.0854
23,ACACCAAA,0.0724
24,ATGAATGA,0.082
25,CAACAGGA,0.0715

row,Sequence,binding signal (normalized occupancy)
1,GCAGCGGA,0.0705
2,ACCTGCGA,0.0754
3,GACGGGAA,0.0747
4,CCTTACCA,0.0772
5,CCCTGTTA,0.0759
6,ACCGCTCC,0.0657
7,CATCTTGA,0.077
8,GTAACGTA,0.077
9,CGGAACTC,0.0671
10,GGAATAAA,0.0741
11,CCGATACA,0.0816
12,GGCAGCAC,0.0769
13,CTAGGTTA,0.075
14,ACGTAGAC,0.0775
15,GAAGCACC,0.0741
16,AGTTCACG,0.0752
17,ATCCTCGA,0.0757
18,AGGGTTAC,0.0723
19,CGTCGGAC,0.0717
20,ATCTTAGG,0.0777
21,ACCTTCCT,0.0707
22,TCATTAGA,0.0757
23,CGCAGAGC,0.069
24,CGCAAACA,0.0718
25,AAGCGGCC,0.0631

row,Sequence,binding signal (normalized occupancy)
1,CATTCCCG,0.0783
2,AAACCGTA,0.0713
3,ACATATCT,0.0819
4,GTTGACGA,0.0768
5,ACAATGAT,0.0837
6,CCAATAAG,0.0728
7,AGAAAGCG,0.0707
8,AGGCCACG,0.0868
9,AAAAGAGG,0.0763
10,GACTGCAC,0.0697
11,CAAAAGCC,0.0674
12,GCTCACTA,0.0758
13,GACAAGAA,0.0761
14,CATCTCGA,0.0817
15,CGAAAGTA,0.0748
16,AGTTCTGG,0.068
17,AAGTAAAC,0.0718
18,GTGCGTGA,0.0887
19,CTTTGACA,0.0747
20,ATTATCAC,0.085
21,GTAGGTGA,0.0726
22,CCGACAGA,0.0688
23,CTCCATCA,0.0804
24,ACCTGCCC,0.0751
25,CGCTACAG,0.0703

row,Sequence,binding signal (normalized occupancy)
1,ACGGCCAT,0.0797
2,ACATCGCT,0.0756
3,CCTTAAGG,0.0719
4,GACATATA,0.0893
5,GTAGTGCA,0.074
6,ACACTCCT,0.0744
7,ATTAGGAC,0.0741
8,AGGAATAA,0.0754
9,CATCGCTA,0.0757
10,CGTATAGA,0.075
11,GCTTTTCC,0.0711
12,GGTAAACA,0.0781
13,ATGTATGG,0.085
14,ACGAGATG,0.0758
15,CAAAAACG,0.0717
16,AGTCTTGA,0.0689
17,CGTGCTGA,0.095
18,CAAGTCGG,0.075
19,TCCCATAA,0.0766
20,AGGGCCTG,0.0751
21,CCTGCTCA,0.0788
22,GTTTTGCA,0.0717
23,GTCGCCAC,0.0755
24,CGGCCGAC,0.0661
25,ACCGGACC,0.0681

row,Sequence,binding signal (normalized occupancy)
1,TCGACAGA,0.0736
2,ATTAAGGG,0.074
3,ACCGGGAG,0.0756
4,GCTTACAA,0.0718
5,AGAGATTG,0.0785
6,CGGTGTGA,0.0813
7,AGAAGGAT,0.0788
8,CAAATCTC,0.0775
9,ATATTCCC,0.0798
10,ATTTATTC,0.0788
11,AACGCAAT,0.0716
12,GTTGCAAC,0.0734
13,CGCGCTCA,0.0722
14,ACAGTCAG,0.0747
15,ATTAGGTG,0.0774
16,GGGTCTTA,0.0763
17,AAATTAAT,0.0772
18,TGACAACA,0.0803
19,ACACACAG,0.0801
20,CACATGTC,0.159
21,AGAACACG,0.0941
22,CTTCTTTC,0.0757
23,ACAATTTG,0.0746
24,TACAATAA,0.0739
25,GAGTGTAC,0.0756

row,Sequence,binding signal (normalized occupancy)
1,CACATAAC,0.0843
2,ACTTTTCT,0.0737
3,GAGCCAGC,0.0658
4,AGATATCT,0.07
5,GGAACTTA,0.0705
6,AAGCCGTA,0.0719
7,CTACTATC,0.0774
8,CTTTTTCA,0.0749
9,TCCTTCGA,0.0691
10,CGTTTCCA,0.0827
11,GTATACCA,0.0795
12,ATTTCTGA,0.0779
13,GTGGAGAA,0.0797
14,AAACACCT,0.0798
15,CAGTGCTA,0.0757
16,AGCGTCCA,0.069
17,AAAGACGG,0.068
18,GACCGGCC,0.0683
19,CCACTTAA,0.0687
20,GAGATTAC,0.0753
21,CGCAAGGC,0.0706
22,AAAGACCA,0.077
23,AAATGGGC,0.066
24,GCCAACCC,0.08
25,CTAATTAC,0.0753

row,Sequence,binding signal (normalized occupancy)
1,ACAGTTCG,0.0722
2,AATTACAC,0.0784
3,ACGACGGG,0.0787
4,GATGAGTA,0.0773
5,AGTTGAAG,0.0735
6,CACATTGG,0.0977
7,AGGCGAAT,0.0739
8,CGATAGGA,0.0771
9,ATAGGAGC,0.0794
10,GGGGTGCA,0.077
11,CAGACCCC,0.085
12,AAACCAAG,0.0725
13,CCTAACGC,0.0772
14,GAAAATGA,0.0795
15,CGGCCGCA,0.0694
16,CAAAAAGA,0.0763
17,CTACGGGC,0.067
18,CTTTGAAA,0.0757
19,TAAAGGAA,0.0741
